± gives the standard error. Variants at the floor of the assay are shown more often than the library holds them.
B1: glmS ribozyme (parent)
chain: AUAAAAGCGCCAGAACUACAGAAAUGUAGUUGACGAGGAGGAGGUUUAUCGAAUUUUCGGCGGAUGCCUCCAAA

Variants of: B1
Assay: self-cleavage kobs at 2500 uM GlcN6P; higher = faster cleavage; RNA array
Conditions: with glucosamine-6-phosphate
In short: (§1)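 E. coli RNA polymerase transcribed barcoded ribozyme variants in situ on sequenced MiSeq chips, which were tracked via a hybridised Cy3 probe at 37 °C. Tiles were imaged over ~14 h after glucosamine-6-phosphate (40 μM to 10 mM) in HEPES/KCl/Mg(OAc)2 buffer was flowed in. Normalised per-tile medians were fit to one- or two-exponential decays for kobs, and kcat and KM came from weighted Michaelis–Menten fits.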

Row | Variant | self-cleavage kobs at 2500 uM GlcN6P [s⁻¹]
1 | A6C G63U A64G | < 1e-05
2 | C11U G32C A42G G59U | < 1e-05
3 | C8A U49G G63U | < 1e-05
4 | A6C G7U A39U A52G U56G | < 1e-05
5 | G7C C10U G44U G51U A64G U65G | < 1e-05
6 | G60C C61A U69G | < 1e-05
7 | G29C G41C G62A | < 1e-05
8 | A6G G32C U49C A53G G62U A64U | < 1e-05
9 | G60A C61U | < 1e-05
10 | G9A G32A C34G C58U | < 1e-05
11 | A36C A39U | < 1e-05
12 | G7A G38U C71G | < 1e-05
13 | A6U G40U C61A | < 1e-05
14 | G7C G38U U54C U56A C71U | < 1e-05
15 | G7C C11A C16U | < 1e-05
16 | A6U A15C G41C | < 1e-05
17 | G7C A52C C61U | < 1e-05
18 | G7A U54G G59A | < 1e-05
19 | A6C U30G U49G U65G | < 1e-05
20 | A48C C50A A52G | < 1e-05
21 | U57C G60U | < 1e-05

Row | Variant | self-cleavage kobs at 2500 uM GlcN6P [s⁻¹]
22 | A6C G9U U55G C58A G60U | < 1e-05
23 | A6G U46A U69C | < 1e-05
24 | A6G A39U U49C | < 1e-05
25 | A6C G7C C10U G29C C58G | < 1e-05
26 | A33C U47C G59C G66A | < 1e-05
27 | G9U A36U U45C U49C | < 1e-05
28 | A36U U57G | < 1e-05
29 | A6G C8G A15C U31G | < 1e-05
30 | G7U G35C G59C | < 1e-05
31 | A12U G13U A36G A39C G51C C67A C71U | < 1e-05
32 | C50G U65G | 7.28e-05 ± 2.4e-05
33 | G13A G44U U47C | < 1e-05
34 | G7C G13C U31G C67A | < 1e-05
35 | G9C A33G A42U | < 1e-05
36 | A6G G13C U55C A64U | < 1e-05
37 | A6G C58G G59C C68U | < 1e-05
38 | G9U A53G | < 1e-05
39 | A6G A36C G62U | < 1e-05
40 | G7U C10G G59U | < 1e-05
41 | C16G U31C G35U A64C | < 1e-05
42 | C10A C16U G60U C61A | < 1e-05

Variants of: B1
Assay: self-cleavage kobs at 160 uM GlcN6P; higher = faster cleavage; RNA array
Conditions: with glucosamine-6-phosphate
In short: as §1

Row | Variant | self-cleavage kobs at 160 uM GlcN6P [s⁻¹]
43 | A12G G32C G35C A39C G51U C71A | < 1e-05
44 | G37U U46G U56G | < 1e-05
45 | A36U U49G A52C | < 1e-05
46 | U47A G62C | < 1e-05
47 | A6U C61U A64G | < 1e-05
48 | C11U G32C A42G G59U | < 1e-05
49 | G7C A33C G59A | < 1e-05
50 | C8A U49G G63U | < 1e-05
51 | G29C G41C G62A | < 1e-05
52 | G60A C61U | < 1e-05
53 | G9A G32A C34G C58U | < 1e-05
54 | A36C A39U | < 1e-05
55 | U31C U55A G59C | < 1e-05
56 | U45G U65C | < 1e-05
57 | C8G A12G G59U C70U | < 1e-05
58 | A6U G40U C61A | < 1e-05
59 | U47C C58U | < 1e-05
60 | G44U U46C | < 1e-05
61 | A48C C50A A52G | < 1e-05
62 | U57C G60U | < 1e-05
63 | G13U G44U U54C | < 1e-05
64 | U54A G60U | < 1e-05
65 | A33C U47C G59C G66A | < 1e-05

Row | Variant | self-cleavage kobs at 160 uM GlcN6P [s⁻¹]
66 | A33C C58G | < 1e-05
67 | G9U A36U U45C U49C | < 1e-05
68 | A36U U57G | < 1e-05
69 | G13C A15U G51U C67U C68G | 6.58e-05 ± 2.5e-05
70 | A33U G51A U55A | < 1e-05
71 | G59U C67U C68U U69C | 4.87e-05 ± 2.4e-05
72 | A6G G40C C50G | < 1e-05
73 | U31G G35U G43U | < 1e-05
74 | G35A C70A | < 1e-05
75 | A12U G13U A36G A39C G51C C67A C71U | < 1e-05
76 | G9U G32C C71A | < 1e-05
77 | C50G U65G | 4.97e-05 ± 1.7e-05
78 | G13A G44U U47C | < 1e-05
79 | A52C U54C | < 1e-05
80 | G9C A33G A42U | < 1e-05
81 | C11G C16U C58G | < 1e-05
82 | G9U A53G | < 1e-05
83 | C10U U31A | < 1e-05
84 | A12G G32A A36G | < 1e-05
85 | C10A A14G | < 1e-05
86 | C16G U31C G35U A64C | < 1e-05
87 | C10A C16U G60U C61A | < 1e-05
88 | A12G G38U | < 1e-05

Variants of: B1
Assay: self-cleavage kobs at 640 uM GlcN6P; higher = faster cleavage; RNA array
Conditions: with glucosamine-6-phosphate
In short: as §1

Row | Variant | self-cleavage kobs at 640 uM GlcN6P [s⁻¹]
89 | G60U G63U C70A | < 1e-05
90 | G60C C61A U69G | < 1e-05
91 | G60A C61U | < 1e-05
92 | U57C G60U | < 1e-05

Variants of: B1
Assay: self-cleavage kobs at 10000 uM GlcN6P; higher = faster cleavage; RNA array
Conditions: with glucosamine-6-phosphate
In short: as §1

Row | Variant | self-cleavage kobs at 10000 uM GlcN6P [s⁻¹]
93 | G60C C61A U69G | < 1e-05
94 | G60A C61U | < 1e-05
95 | A36C A39U | < 1e-05
96 | U47C C58U | 4.92e-05 ± 8.1e-06
97 | U57C G60U | < 1e-05
98 | A36U U57G | < 1e-05
99 | C10A A14G | 3.58e-05 ± 1.1e-05
100 | A12G G38U | < 1e-05

From the supplement of paper PMC7125110
